Assay results published in the supplement of paper PMC10126150.
Sequences with one replicate were seen in a single cluster, so their values are uncertain.

tested on: ATP; experiment: switch fluorescence ratio, 500 uM ATP over buffer (Cy3 cluster intensity, sum of 5 cycles each) (fold (ratio)); higher = stronger signal-on switching upon ATP binding; sequences stand for … in TCGTCGGCAGCGTCAGATGTGTATAAGAGACAGTTTTTTTTTTTTTTTTTTTTTTTTT…TC; conditions: aptamer strand: ATP DNA aptamer (quencher-CACCTGGGGGAGTATTGCGGAGGAAGG + anchor), 100 nM annealed; ATP concentration: 500 uM; one replicate
How it was run: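 Per cluster, summed Cy3 intensity from the target cycles was divided by that from the buffer cycles to give the fluorescence ratio, then averaged per switch-domain sequence. Clusters outside 100-1000 RFU were excluded. The Cy3-labelled switching-strand clusters, on a modified Illumina MiSeq flow-cell, were annealed to 100 nM quencher-labelled ATP aptamer and imaged in selection buffer, then after 15 min with 500 uM ATP at 22 °C, for five cycles with NaOH stripping and re-annealing between them.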
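Also: ATP exposure 15 min at 22 °C before imaging.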

Row | Sequence | switch fluorescence ratio
1 | ATTGTGTAAT | 1.05
2 | ATTGTGTATA | 1.05
3 | ATTGTTGTCA | 0.984
4 | ATTTAAAGAA | 0.988
5 | ATTTAACGAT | 1.02
6 | ATTTAATACT | 1.02
7 | ATTTACGTCA | 1.19
8 | ATTTAGGCCG | 1.14
9 | ATTTATGACC | 0.998
10 | ATTTCAAAGT | 1.01
11 | ATTTCAGTTT | 1.01
12 | ATTTCCACGT | 1
13 | ATTTCCGAGT | 1.08
14 | ATTTCCTC | 1.09
15 | ATTTCGACCT | 1.04
16 | ATTTCGGCCG | 0.989
17 | ATTTCTGTAG | 1.03
18 | ATTTCTTACT | 0.997
19 | ATTTGAAAAT | 1.01
20 | ATTTGAAT | 0.996
21 | ATTTGCACGG | 1.03
22 | ATTTGGAAAA | 1.1
23 | ATTTGGATA | 1.01
24 | ATTTGGATTC | 1.01
25 | ATTTGGCCTT | 1.03

Row | Sequence | switch fluorescence ratio
26 | ATTTGGCTGA | 0.978
27 | ATTTGGGCAC | 1.02
28 | ATTTGGTATG | 0.982
29 | ATTTGGTCGG | 0.982
30 | ATTTGTACCA | 0.992
31 | ATTTGTAGC | 0.93
32 | ATTTGTGACA | 0.988
33 | ATTTGTGCCA | 0.977
34 | ATTTGTTGTA | 0.964
35 | ATTTTAAGT | 1
36 | ATTTTACAGG | 1.01
37 | ATTTTACCGC | 0.987
38 | ATTTTACTAT | 1.01
39 | ATTTTAGCCA | 0.966
40 | ATTTTCATTC | 1.03
41 | ATTTTCCAAT | 1.02
42 | ATTTTCCCAG | 1.13
43 | ATTTTCCGAG | 1.16
44 | ATTTTCCTTA | 0.99
45 | ATTTTGCCAA | 1.01
46 | CAAAAAATGC | 1.04
47 | CAAAAACAAT | 1.01
48 | CAAAAAGCCG | 1.05
49 | CAAAAAGGTT | 1
50 | CAAAAATTAA | 0.993

Row | Sequence | switch fluorescence ratio
51 | CAAAACGTTT | 1.01
52 | CAAAAGCATG | 0.996
53 | CAAAAGCGGC | 1.13
54 | CAAAAGTATA | 1.01
55 | CAAAATGAAA | 1.04
56 | CAAACACCAG | 1.05
57 | CAAACATAGG | 1.01
58 | CAAACATCGG | 1.01
59 | CAAACCGGAA | 1.39
60 | CAAACGACAG | 1.01
61 | CAAACGGACT | 1.19
62 | CAAACGTAGT | 1.19
63 | CAAACTTGT | 1.07
64 | CAAACTTTT | 1
65 | CAAAGAACGA | 0.974
66 | CAAAGAGAT | 0.994
67 | CAAAGATCTA | 0.983
68 | CAAAGGAGAA | 0.999
69 | CAAAGGATGG | 0.987
70 | CAAAGGTATC | 1.01
71 | CAAAGTACC | 1.22
72 | CAAAGTCATA | 1.01
73 | CAAAGTCCG | 1.15
74 | CAAAGTCTCG | 1.04
75 | CAAAGTTCCA | 0.967

Row | Sequence | switch fluorescence ratio
76 | CAAATATGGT | 1.01
77 | CAAATCGCAC | 1.33
78 | CAAATCGGCA | 1.03
79 | CAAATCTTTA | 1
80 | CAAATGAACC | 1.08
81 | CAAATTAGTG | 0.972
82 | CAAATTGCCA | 0.98
83 | CAACAAGGAC | 1.39
84 | CAACACCATA | 1.07
85 | CAACACGTTT | 0.984
86 | CAACATGTAC | 1.23
87 | CAACCGTTGG | 0.976
88 | CAACCTCTGG | 1.02
89 | CAACCTTTGG | 1.04
90 | CAACGCACGG | 1.82
91 | CAACGGAATT | 1.09
92 | CAACGGCTGC | 1.09
93 | CAACGGCTGG | 0.99
94 | CAACGGGAGA | 1.04
95 | CAACGTACGT | 1.15
96 | CAACTACGCT | 1.37
97 | CAACTATTCG | 0.99
98 | CAACTCATTT | 1.04
99 | CAACTCGGAA | 1.06
100 | CAACTGGCAC | 1.13

Row | Sequence | switch fluorescence ratio
101 | CAACTTTGCG | 0.997
102 | CAACTTTTTA | 1.02
103 | CAAGAAAACA | 1.03
104 | CAAGAACGGA | 1.01
105 | CAAGAAGTTC | 0.997
106 | CAAGACGGGT | 1.04
107 | CAAGACTTCT | 1.06
108 | CAAGAGACGA | 1.06
109 | CAAGAGGATC | 1
110 | CAAGATAAGA | 0.993
111 | CAAGCACCGC | 0.993
112 | CAAGCCAACG | 1.01
113 | CAAGCCACCT | 1.01
114 | CAAGCGACAC | 2.39
115 | CAAGCGCAGT | 1.18
116 | CAAGCTCACG | 1.02
117 | CAAGCTCCTA | 1.02
118 | CAAGCTGAAC | 1.29
119 | CAAGCTGGAG | 0.975
120 | CAAGGACTCC | 1.12
121 | CAAGGATTCT | 1.01
122 | CAAGGGCACG | 1.04
123 | CAAGGGTCGA | 1.02
124 | CAAGGGTTAG | 0.988
125 | CAAGGTACCG | 0.983

Row | Sequence | switch fluorescence ratio
126 | CAAGGTATGC | 1.01
127 | CAAGGTCTTT | 1.03
128 | CAAGGTTCCA | 0.988
129 | CAAGGTTGTC | 1.08
130 | CAAGTAGCGG | 1.02
131 | CAAGTAGGCC | 1.01
132 | CAAGTATTT | 1.01
133 | CAAGTCAGGT | 1.01
134 | CAAGTCTGCT | 0.941
135 | CAAGTGGCTA | 1
136 | CAAGTGGTA | 0.977
137 | CAAGTGTCTG | 0.976
138 | CAAGTTTCCG | 0.971
139 | CAATAAGTGT | 0.998
140 | CAATAATAGG | 1.02
141 | CAATAATGAG | 1.02
142 | CAATACATGT | 1.02
143 | CAATACCTGA | 1.09
144 | CAATACTACG | 1.21
145 | CAATAGAAAG | 0.988
146 | CAATAGACTT | 0.976
147 | CAATAGGGG | 0.956
148 | CAATAGTTAC | 1.08
149 | CAATATGTAC | 1.11
150 | CAATCAGCTG | 1.01

Row | Sequence | switch fluorescence ratio
151 | CAATCAGTGG | 0.955
152 | CAATCATGCC | 0.989
153 | CAATCCCTTT | 0.985
154 | CAATCGACCG | 1.02
155 | CAATCGCCCG | 0.97
156 | CAATCGGAAA | 1.04
157 | CAATCTCATT | 1.02
158 | CAATGATTTT | 0.979
159 | CAATGGAGTC | 0.969
160 | CAATGTCGGC | 0.962
161 | CAATGTTACT | 1.02
162 | CAATTACGT | 1.1
163 | CAATTAGGTG | 1.21
164 | CAATTCGTTG | 0.931
165 | CAATTCTCAA | 1.01
166 | CAATTCTGGG | 0.971
167 | CAATTGACGG | 1.03
168 | CAATTGAG | 1.02
169 | CAATTGAGCG | 1
170 | CAATTGCTGC | 0.934
171 | CAATTGGTC | 0.95
172 | CAATTTAGGA | 0.978
173 | CAATTTGACT | 1.03
174 | CAATTTTCGC | 1.06
175 | CACAATACGA | 4.6

Row | Sequence | switch fluorescence ratio
176 | CACACACAAG | 1.2
177 | CACACGAGGG | 1.06
178 | CACACGTTGA | 1.04
179 | CACACTCGAA | 1.04
180 | CACACTGCGG | 1.02
181 | CACAGGTGTA | 4.18
182 | CACAGTCCCG | 1.04
183 | CACAGTGCGA | 0.999
184 | CACAGTTATT | 1.04
185 | CACATAACCG | 1.14
186 | CACATAGTTA | 1.06
187 | CACATATGTG | 1.05
188 | CACATCAGGC | 1.03
189 | CACATCAGTG | 1.02
190 | CACATCATGG | 1.04
191 | CACATCGGAA | 1.06
192 | CACATGTGTT | 1.01
193 | CACCAACCCA | 1.15
194 | CACCACTCGC | 0.983
195 | CACCAGGGGA | 1.11
196 | CACCAGTTTT | 1.04
197 | CACCATGGAA | 0.995
198 | CACCCACTGG | 1.16
199 | CACCCCCTGC | 1.34
200 | CACCCGGACT | 1.08
